# Assay results from paper doi:10.1101/2025.02.04.636395.
# Where a chain is given by its changes, count along the chain named. These are yes or no findings as the source states them, for the method shown. Binding seen in cells or lysates may run through a third protein. Some entries that bind do so weakly or less than the wild type. Where a sequence is shown, tags or fusion partners need not be part of it.
# T1: GFP-LRMDA G217S (human)
# T1 sequence: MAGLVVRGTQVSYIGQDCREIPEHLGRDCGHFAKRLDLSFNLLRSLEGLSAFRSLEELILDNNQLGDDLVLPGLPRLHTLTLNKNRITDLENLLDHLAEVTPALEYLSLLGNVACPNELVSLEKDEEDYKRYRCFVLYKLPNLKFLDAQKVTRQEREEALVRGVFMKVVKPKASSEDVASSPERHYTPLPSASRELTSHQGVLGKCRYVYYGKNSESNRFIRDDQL
# T2: GFP-LRMDA L189D (human)
# T2 sequence: T1 sequence with L189D, S217G
# T3: GFP-LRMDA (human)
# T3 sequence: T1 sequence with S217G
# T4: GFP-LRMDA R222stop (human)
# T4 sequence: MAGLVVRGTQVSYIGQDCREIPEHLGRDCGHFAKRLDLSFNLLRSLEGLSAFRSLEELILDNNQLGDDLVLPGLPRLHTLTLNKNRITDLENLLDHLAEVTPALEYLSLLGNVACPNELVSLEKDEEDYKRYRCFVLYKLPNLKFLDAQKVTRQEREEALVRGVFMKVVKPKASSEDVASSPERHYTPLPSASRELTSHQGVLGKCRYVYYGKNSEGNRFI
# T5: GFP-LRMDA Y106D (human)
# T5 sequence: T1 sequence with Y106D, S217G
# T6: GFP-LRMDA^127–226 (human)
# T6 sequence: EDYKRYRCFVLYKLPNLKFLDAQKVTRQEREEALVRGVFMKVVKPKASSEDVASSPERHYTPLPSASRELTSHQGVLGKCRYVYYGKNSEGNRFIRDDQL
# T7: GFP-LRMDA N117K (human)
# T7 sequence: T1 sequence with N117K, S217G
# B1: RAB32 (endogenous) (protein, UniProt Q13637 1-225)
# chain: MAGGGAGDPGLGAAAAPAPETREHLFKVLVIGELGVGKTSIIKRYVHQLFSQHYRATIGVDFALKVLNWDSRTLVRLQLWDIAGQERFGNMTRVYYKEAVGAFVVFDISRSSTFEAVLKWKSDLDSKVHLPNGSPIPAVLLANKCDQNKDSSQSPSQVDQFCKEHGFAGWFETSAKDNINIEEAARFLVEKILVNHQSFPNEENDVDKIKLDQETLRAENKSQCC
# How the values were obtained:
# Test in all cases: co-IP; GFP-trap (GFP-nanotrap agarose) from lysates of transfected HEK293T cells; lysis in 0.5% NP-40, 100 mM Tris-HCl pH 7.5 in PBS (in dH2O for GFP-SNX17); 1 h at 4 °C; western blot of endogenous Retriever subunits, CCC subunits and RAB32 or of co-expressed mCherry-LRMDA
# GFP-LRMDA G217S (human) = target: T1, GFP-LRMDA G217S (human)
# GFP-LRMDA L189D (human) = target: T2, GFP-LRMDA L189D (human)
# GFP-LRMDA (human) = target: T3, GFP-LRMDA (human)
# [1] = target: T4, GFP-LRMDA R222stop (human)
# GFP-LRMDA Y106D (human) = target: T5, GFP-LRMDA Y106D (human)
# [2] = target: T6, GFP-LRMDA^127–226 (human)
# GFP-LRMDA N117K (human) = target: T7, GFP-LRMDA N117K (human)
binder,measurement,setting,value
B1,binding,GFP-LRMDA G217S (human),binds
same,binding,GFP-LRMDA L189D (human),binds
same,binding,GFP-LRMDA (human),binds
same,binding,[1],binds
same,binding,GFP-LRMDA Y106D (human),no binding
same,binding,[2],no binding
same,binding,GFP-LRMDA N117K (human),no binding
